# Results from PubChem BioAssay AID588453 (National Center for Advancing Translational Sciences (NCATS), 2011).
# Values joined by “and” are separate entries in the source; they are usually repeats but may differ in a detail not shown here. Identical values can stand only once. In all, about 390,000 compounds went through this assay and about 4,000 (1%) were called active. Inconclusive means that the source gave no clear call. Such entries were picked first, then a sample of the others. The call rests on the fitted dose curve; in most records, active means well fitted inhibition curve with a large enough effect; inconclusive means small, poorly fitted or top-dose-only effect; inactive means no such curve, though single readings can be large or run the other way. Where the call is inconclusive, the potency comes from a doubtful curve fit.
# Target: Thioredoxin reductase 1, cytoplasmic (Rattus norvegicus) (UniProt O89049)
# UniProt O89049, sequence (O89049 whole entry, looked up): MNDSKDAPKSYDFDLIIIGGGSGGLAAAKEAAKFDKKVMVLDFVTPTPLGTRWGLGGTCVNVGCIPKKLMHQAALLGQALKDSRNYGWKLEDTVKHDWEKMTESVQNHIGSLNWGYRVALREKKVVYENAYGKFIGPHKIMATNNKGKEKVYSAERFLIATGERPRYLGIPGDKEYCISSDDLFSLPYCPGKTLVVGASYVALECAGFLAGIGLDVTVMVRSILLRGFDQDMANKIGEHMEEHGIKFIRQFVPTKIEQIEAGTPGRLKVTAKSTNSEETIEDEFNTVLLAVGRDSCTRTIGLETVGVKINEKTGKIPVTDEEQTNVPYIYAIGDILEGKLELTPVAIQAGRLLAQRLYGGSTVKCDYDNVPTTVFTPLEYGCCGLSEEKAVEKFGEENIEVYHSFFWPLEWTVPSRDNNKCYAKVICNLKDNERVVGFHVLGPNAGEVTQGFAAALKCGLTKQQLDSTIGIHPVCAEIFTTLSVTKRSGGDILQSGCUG
# Assay: qHTS Assay for Inhibitors of Mammalian Selenoprotein Thioredoxin Reductase 1 (TrxR1): qHTS; further: nearly all actives have a fitted effect of over 65% in size
# Conditions: recombinant rTrxR1, NADPH fluorescence consumption, selenite substrate; series mostly up to 114 µM; activity change, negative = inhibition: at the top concentration
# Outline: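 Rat TrxR1 (90 nM in the dispensed reagent) was pre-reduced with 400 uM NADPH for 5 min at room temperature, then incubated with compound for 15 min. After 400 uM selenite was added, NADPH fluorescence (Ex 340/Em 450 nm) was followed for 8 min.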
# On the % scale 0 is the no-effect control and ±100 the full control effect; potency means the concentration at half of the fitted maximal effect; tags describe the fitted curve by direction and shape.
SMILES,"activity change, negative = inhibition",Potency
CCn1c(-c2cccn(Cc3ccccc3)c2=O)n[nH]c1=S,inactive: -9.41% [at 57.1 µM],
Cn1c(=O)c2cc(NCc3ccccc3)nnc2n(C)c1=O,inactive: -17.8%,
O=C1CC(Nc2ccc(N3CCOCC3)cc2)C(=O)N1Cc1ccccc1 (centres undefined),,"inconclusive: 22.4 µM [inhibitor, partial curve]"
CC(=O)c1cc(-c2ccccc2)n(CC(=O)Nc2cccc(C)c2C)c1C,,"inconclusive: 89.1 µM [inhibitor, single point]"
C(=N\Nc1nc(-c2ccccc2)cs1)/c1ccncc1,inactive: 31.7% [at 11.4 µM],
O=C(NCCCN1CCCCCC1)c1cc2c(=O)oc3ccccc3c2s1,,"inconclusive: 31.6 µM [inhibitor, partial curve, poor fit]"
NC(=O)c1ccc(-c2ncc(-c3ccccc3)o2)cc1,inactive: 0.497%,
O=C(O)COc1ccc(NC(=O)c2ccc3c(c2)C(=O)N(C2CCCCC2)C3=O)cc1,inactive: -2.4% [at 57.1 µM],
O=C(CSc1ncn[nH]1)Nc1ccc(Cl)c(Cl)c1,,"inconclusive: 35.5 µM [inhibitor, partial curve, poor fit]"
Cc1ccc(C(=O)/C=C/c2ccccc2)o1,,"inconclusive: 79.4 µM [inhibitor, single point]"
Cc1ccc(-c2c[n+](CC(=O)Nc3cc(=O)n(C)c(=O)n3C)c3n2CCC3)cc1,inactive: -0.0647%,
Cc1ccc(NC(=S)NCC2CCN(C(C)c3ccccc3)C2)cc1 (centres undefined),inactive: -18.9%,
CC(=O)c1c(C)oc2ccc(N(C(=O)Oc3ccccc3)S(=O)(=O)c3ccc(Cl)cc3)cc12,inactive: 21.5%,
CC(C)CC(CSc1ccc(Br)cc1)N1CCN(CC(C)C)CCC1=O (centres undefined),,"inconclusive: 31.6 µM [inhibitor, single point]"
COc1ccc(OCC(=O)Nc2ccc(-c3nc4cc(C)cc(C)c4o3)cc2)cc1,inactive: 18.6%,
O=C1NN=C(CSc2n[nH]c(=S)s2)CS1,,"inconclusive: 39.8 µM [inhibitor, partial curve, poor fit]"
CC1(c2ccc3ccccc3c2)NC(=O)N(CC(=O)N2CCN(Cc3ccc(C#N)cc3)CC2)C1=O (centres undefined),,"inconclusive: 79.4 µM [inhibitor, single point]"

SMILES,"activity change, negative = inhibition",Potency
Cc1c(C#N)c(O)[nH]c(=O)c1N=Nc1ccc(S(N)(=O)=O)cc1,,"inconclusive: 89.1 µM [inhibitor, single point]"
CCN(CC)c1ccc(NC(=O)c2cccn2-c2nnc(N3CCCCC3)s2)c(C)c1,inactive: 24.3% [at 57.1 µM],
N#CC(C#N)=C(N)/C(C#N)=C/c1ccc(O)cc1,,"inconclusive: 10 µM [inhibitor, full curve, poor fit] and inconclusive: 33.6 µM [inhibitor, single point]"
Cc1ccc(-n2c(-c3ccco3)nc3nc4ccccc4nc32)cc1F,inactive: 4.99%,
Cc1cc(/C=N/NC(=O)c2ccccc2F)c(C)n1-c1ccccc1,,"inconclusive: 39.8 µM [inhibitor, partial curve, poor fit]"
Cc1ccc(C(=O)/C=C/c2ccc(F)cc2)o1,,"inconclusive: 12.6 µM [inhibitor, full curve]"
Nn1cnc2scc(-c3ccco3)c2c1=O,,"inconclusive: 56.2 µM [inhibitor, partial curve, poor fit]"
Cc1ccc(C(=O)OCC(=O)c2ccccc2)cc1,inactive: 6.54%,
Cc1cc(-c2n[nH]c(=S)n2/N=C/C=C/c2ccccc2)n[nH]1,,"inconclusive: 79.4 µM [inhibitor, single point]"
Cn1c(N)c(C(=O)COC(=O)C2CCC(C(C)(C)C)CC2)c(=O)n(C)c1=O (centres undefined),inactive: 2.47% [at 57.1 µM],
COc1ccc2oc(=O)c(/C(C)=N/NC(=O)c3ccncc3)cc2c1,,"inconclusive: 56.2 µM [inhibitor, partial curve]"
Cc1cccc(N2C(=O)CC(N(O)c3ccccc3)C2=O)c1 (centres undefined),,"inconclusive: 89.1 µM [inhibitor, single point]"
Cc1cc(SCc2ccc([N+](=O)[O-])cc2)nc(=O)[nH]1,,"inconclusive: 14.1 µM [inhibitor, full curve]"
COC/C=C/C1=CC2=CC(=O)C(C)(OC(=O)c3cnc4ccccc4n3)C(=O)C2=CN1CCCCO (centres undefined),,"inconclusive: 25.1 µM [inhibitor, partial curve]"
CCOC(=O)/C(C#N)=C/C1=C(N2CCOCC2)C(C)(C)OCC1,,"inconclusive: 35.5 µM [inhibitor, partial curve, poor fit]"
COc1ccc(OCC(=O)c2c(O)c3ccccc3oc2=O)cc1,,"inconclusive: 15.8 µM [inhibitor, full curve]"
CC(Sc1nnc2ccc3ccccc3n12)C(=O)Nc1ccc(Cl)cc1 (centres undefined),inactive: 2.58%,
